Test results: paper PMC4336329 (PLoS ONE, 2015)
Among all 310,000 compounds or so, about 14,000 (4.5%) showed an effect of 50% or more. Effects have a minus sign here. Some of the results follow.

Target: human ether-à-go-go-related gene (hERG) potassium channel (human, UniProt Q12809)
Experiment: primary screen, population patch clamp on CHO cells stably expressing hERG
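Note: peak tail current of the secondary pulse compared with the same well before compound.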

human ether-à-go-go-related gene (hERG) potassium channel, sequence (Q12809 whole entry, looked up): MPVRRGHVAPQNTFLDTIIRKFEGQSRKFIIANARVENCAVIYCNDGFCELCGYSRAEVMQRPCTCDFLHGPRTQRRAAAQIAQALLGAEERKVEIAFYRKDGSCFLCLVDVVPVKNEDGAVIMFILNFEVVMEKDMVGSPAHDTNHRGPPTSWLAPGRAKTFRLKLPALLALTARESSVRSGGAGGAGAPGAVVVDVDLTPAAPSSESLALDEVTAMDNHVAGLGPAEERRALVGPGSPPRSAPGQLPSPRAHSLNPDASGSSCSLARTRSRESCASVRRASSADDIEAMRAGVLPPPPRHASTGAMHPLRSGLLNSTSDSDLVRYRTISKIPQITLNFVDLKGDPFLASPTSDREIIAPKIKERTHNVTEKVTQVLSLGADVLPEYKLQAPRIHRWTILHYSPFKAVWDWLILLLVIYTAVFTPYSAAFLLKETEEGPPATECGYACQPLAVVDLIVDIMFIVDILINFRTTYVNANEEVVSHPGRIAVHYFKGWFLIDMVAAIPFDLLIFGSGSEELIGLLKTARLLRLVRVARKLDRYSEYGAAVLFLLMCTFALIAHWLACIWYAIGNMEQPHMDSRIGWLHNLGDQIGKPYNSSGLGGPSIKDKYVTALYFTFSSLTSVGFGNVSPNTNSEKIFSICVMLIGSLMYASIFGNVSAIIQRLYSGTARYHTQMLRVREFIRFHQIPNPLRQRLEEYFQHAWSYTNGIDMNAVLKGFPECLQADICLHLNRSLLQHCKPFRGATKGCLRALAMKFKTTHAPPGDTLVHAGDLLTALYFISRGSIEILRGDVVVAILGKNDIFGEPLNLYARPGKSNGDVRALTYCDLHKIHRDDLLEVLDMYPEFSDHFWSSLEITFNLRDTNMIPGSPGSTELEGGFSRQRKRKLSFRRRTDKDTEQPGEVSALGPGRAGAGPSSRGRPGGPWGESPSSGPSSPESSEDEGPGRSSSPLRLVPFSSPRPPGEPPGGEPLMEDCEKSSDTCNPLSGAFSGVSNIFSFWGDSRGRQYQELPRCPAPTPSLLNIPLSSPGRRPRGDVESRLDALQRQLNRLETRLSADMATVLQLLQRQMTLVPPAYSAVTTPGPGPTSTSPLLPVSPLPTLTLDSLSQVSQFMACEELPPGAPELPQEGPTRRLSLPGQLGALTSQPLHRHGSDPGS

SMILES	hERG current change (%, negative = inhibition) at 10uM [%]
CC(=O)c1cc2c(C)c(C(=O)c3ccccc3)oc2cc1O	10.5
O=C(COC(=O)c1ccco1)Nc1ccc2c(c1)OCO2	5.79
CCn1cc(Br)c(C(=O)Nc2ccc(F)c(Cl)c2)n1	-20.3
COc1ccc(-c2nc(N3CCN(C)CC3)sc2-c2ccc(OC)cc2)cc1	-25.9
COC(=O)c1ccc(COc2ccc3ccc(=O)oc3c2)o1	8.66
COC(=O)C1=C(c2cc3ccccc3s2)C[C@@H]2CC[C@H]1N2C(=O)NCc1ccc(F)cc1	-2.9
N#Cc1ccc(NC(=O)C2=COCCO2)cc1	3.09
NS(=O)(=O)c1ccc(CNC(=O)c2cnccn2)cc1	-1.09
CCNC(=S)N1N=C2c3ccccc3CCC2C1c1ccc(F)cc1 (stereo not drawn)	13.8
O=C(NCCc1c[nH]c2ccccc12)C(=O)NCC1OCCCN1S(=O)(=O)c1cc(F)ccc1F (stereo not drawn)	4.56
COC(=O)C(c1cc(OC)c(O)c(OC)c1)(N1CCNC(C)C1)C(F)(F)F (stereo not drawn)	-9.77
CC1Cc2ccccc2N1Cc1cc(=O)c(OCC(=O)NCCc2ccccc2)co1 (stereo not drawn)	8.71
COc1ccccc1C(=O)NNC(=O)CCN1C(=O)/C(=C\c2ccccc2)SC1=S	16.4
CC1CN(C(=O)C(c2ccccc2)c2ccccc2)CC(C)O1 (stereo not drawn)	13.7
O=C(COC(=O)c1ccc(Br)cc1)NCc1ccc(F)cc1	18.1
CC(C)c1ccc(/C=C/C(=O)NC2=NCCS2)cc1	10.8
Cc1nnc(SCC(=O)Nc2ccc3c(c2)OCCO3)s1	16.9
CCOc1ccc(N(CC(=O)N2CCOCC2)S(=O)(=O)c2ccc(SC)cc2)cc1	-14.3
O=CN1CCN(C(=O)CC(c2ccccc2)c2cc(Br)ccc2O)CC1 (stereo not drawn)	-40.3
CCNC(=O)CN(CCc1ccccc1)S(C)(=O)=O	17.8
Cc1ccc2[nH]c(=O)c(COC(=O)C3CCCO3)cc2c1 (stereo not drawn)	4.86
CCCCn1c(N)c(N(CC(C)C)C(=O)CN(C)S(=O)(=O)c2ccc(C)cc2)c(=O)[nH]c1=O	-0.501

SMILES	hERG current change (%, negative = inhibition) at 10uM [%]
O=C(Nc1cccc(-c2cnc3ccccc3n2)c1)C1CC(=O)N(c2ccccc2)C1 (stereo not drawn)	-1.19
COc1ccc(S(=O)(=O)Nc2ccccc2C(F)(F)F)cc1	-13.9
CCCC(=O)NC1=C(C#N)C2(CCCCC2)Cc2ccccc21	1.47
CC(=O)c1ccc(OCCCC(=O)OCc2nnc(-c3ccc(Cl)cc3)o2)cc1	-1.83
O=C(CSc1nccn1-c1ccc(Cl)cc1)Nc1ccc2c(c1)OCO2	-12
Cc1cccc(NC(=S)NC2CC3CCCC(C2)N3Cc2cccs2)c1 (stereo not drawn)	-35.9
Cc1cc(SCC(=O)NCCC2=CCCCC2)nc2ccccc12	-10.9
Cc1occc1C(=O)N/N=C/c1ccc(-c2cccc([N+](=O)[O-])c2)o1	1.37
COc1ccc(CNC(=O)CCCn2nc(C)n3c(cc4sccc43)c2=O)cc1	-1.61
CCOC(=O)c1sc2ncc([N+](=O)[O-])cc2c1N	1.98
Cc1ccc(C(C)C)c(Oc2cnccn2)c1	6.9
O=C(NCCS(=O)(=O)N1CCN(c2ccccc2F)CC1)c1cccc(Br)c1	2.34
Cc1ccc(C)c(S(=O)(=O)NCc2ccc(C(=O)NCc3ccccn3)cc2)c1	-2.6
CC(C)CN(CC(C)C)S(=O)(=O)N1CCC(C(=O)NCc2ccc(F)cc2)CC1	12.9
Cc1ccc(C2=NOC(C)(c3nnc(-c4ccc(Cl)cc4)o3)C2)cc1 (stereo not drawn)	6.5
O=C(Cn1c2[n+](c3ccc(C(F)(F)F)cc31)CCCCC2)c1ccc2c(c1)OCCO2.[Cl-]	5.15
CCCS(=O)(=O)N1CCCC(c2nc(-c3ccc(OC)cc3)no2)C1 (stereo not drawn)	-0.5
CN(C(=O)c1ccc2c(c1)OCO2)C1(C(=O)NC2CCCCC2)CCCCC1	0.646
CC(=O)Nc1cc(NC(=O)C2C3C=CC(C3)C2C(=O)O)ccc1Cl (stereo not drawn)	14.5
CN(C(=O)COC(=O)c1ccc(S(=O)(=O)N2CCCC2)cc1)c1ccccc1	1.3
NS(=O)(=O)c1ccc(CCNC(=O)c2ccc3c(c2)N(Cc2ccccc2)CCS3)cc1	18.8
COc1ccc(S(=O)(=O)N2CCN(C(=O)c3c(-c4ccccc4)noc3C)CC2)cc1	-2.08

SMILES	hERG current change (%, negative = inhibition) at 10uM [%]
Cn1c(=O)n(CCOc2ccc(Cl)cc2Cl)c2ccccc21	-2.26
Cc1ncoc1C(=O)N1CCCC(C(=O)c2cccc(OC(C)C)c2)C1 (stereo not drawn)	10.3
CC(=O)Oc1cc2c3c(c1)/C(=C1/SC(=S)NC1=O)C(=O)N3C(C)(C)C=C2C	73.5
COc1cc(OC)cc(C(=O)Nc2ccc(N(C)C)c3ccccc23)c1	16.4
O=[N+]([O-])c1cccnc1Oc1cccnc1	27.4
CC1CCCCC12NC(=O)N(CC(=O)N1CCc3ccccc31)C2=O (stereo not drawn)	6.97
COc1ccc(CNC(=O)C2CC(c3cccc([N+](=O)[O-])c3)=NO2)cc1 (stereo not drawn)	-24.1
Cc1cc(NC(=O)C(=O)NCCN2CCN(C(=O)c3cccs3)CC2)ccc1Br	-63.7
COC(=O)c1cc(C(=O)CC(C)C)c[nH]1	16.7
O=C(Nc1cccc2ncccc12)C(Cl)(Cl)Cl	-4.64
Cc1nn(CC(=O)N2CCOCC2)c(=O)c2nn(-c3ccccc3)c(C)c12	8.35
O=C(OCC(=O)N1CCN(C(=O)c2ccco2)CC1)c1cccc(S(=O)(=O)N2CCc3ccccc32)c1	-84
COC(=O)c1cc2n(n1)CCN(Cc1ccccc1Cl)C2=O	-0.101
CCn1c2ccc(F)cc2c2nc3ccccc3nc21	3.44
CCC1(c2ccccc2)NC(=O)N(CC(=O)N(C)Cc2ccccc2)C1=O (stereo not drawn)	14.8
S=C(Nc1cc(Cl)cc(Cl)c1)N1CCN(c2ccccn2)CC1	14.5
c1cncc(CNc2nc(N3CCOCC3)nc(N3CCOCC3)n2)c1	7.09
COC(=O)c1c(-c2cccnc2)csc1NC(=O)c1cc(C)on1	40.2
CCN(CC)S(=O)(=O)c1ccc(Cl)c(OC)c1	-4.71
COc1ccc(CNC(=O)C(=O)NCC2OCCN2S(=O)(=O)c2ccc(OC)c(OC)c2)cc1 (stereo not drawn)	7.3
CCCCSc1nc2c(cnn2-c2ccc(Cl)cc2)c(=O)[nH]1	15.5
CC1CCN(S(=O)(=O)c2ccc3nc(N4CCN(c5ccccc5)CC4)ccc3c2)CC1	13.2

SMILES	hERG current change (%, negative = inhibition) at 10uM [%]
CCn1c2ccccc2c2cc(NC(=O)c3ccccc3[N+](=O)[O-])ccc21	14
COc1ccc(Cc2nnc(NC(=O)c3ccccc3F)s2)cc1OC	9.86
Cc1ccc(S(=O)(=O)N[C@H](C(=O)OCC(=O)NC(=O)Nc2ccc3c(c2)OCCO3)C(C)C)cc1	8.74
CCOc1ccc(S(=O)(=O)NCc2cccnc2)cc1C(C)C	11
Cc1noc(C)c1C(=O)N1CCC(C(=O)c2ccc(F)cc2F)CC1	10.9
COc1ccccc1NC(=O)c1ccc(COc2ccccc2Br)o1	-19.6
C=CCn1cc(C(=O)NCc2cccnc2)c(=O)c2cc(S(=O)(=O)N(CC)CC)ccc21	-74.4
O=[N+]([O-])c1ccc2nc(SCc3ccccc3Cl)sc2c1	-2.18
Cc1cc(C)cc(CSCC(=O)NN=C2CCCCCC2)c1	-44.7
CC(=O)NS(=O)(=O)c1ccc(NS(=O)(=O)c2ccccc2[N+](=O)[O-])cc1	5.18
Cc1ccc(NC(=S)N(Cc2ccc(Br)cc2)Cc2ccc(C(=O)O)cc2)cc1C	32
CCCC(=O)c1c(C)c2ccccc2n1C	5.38
CCn1c(Cc2cccc3ccccc23)nnc1SCC(=O)Nc1nccs1	4.13
O=C1Nc2ccccc2O/C1=C\c1ccccc1Br	4.08
Cc1ccc(Cl)cc1NC(=O)C1CC1c1ccccc1 (stereo not drawn)	5.23
Cc1ccc(NC(=O)Cn2cccc2)c(C)c1	2.32
CC(C)(C)NC(=O)NC(=O)COC(=O)c1c(F)cccc1Cl	34.1
CC(C)CCNC(=S)Nc1ccc(F)cc1	8.56
CCCCC(CC)CNC(=O)c1[nH]c(C)c(C(C)=O)c1C (stereo not drawn)	-3.05
CCC(CC)C1=NN2C(=N)/C(=C/c3ccc(OC(=O)c4ccco4)cc3)C(=O)N=C2S1	20.1
CS(=O)(=O)c1ccc(CNC(=O)C2(C(F)(F)F)C/C(=C\Cc3ccccc3)CCCO2)cc1 (stereo not drawn)	-11.6
